Reference: PMC6919601, “Identification of Plasmodium dipeptidyl aminopeptidase allosteric inhibitors by high throughput screening” (PLoS ONE, 2019)
Out of some 110,000 compounds screened, about 230 (0.21%) showed an effect of 50% or more. Some of the results follow.

target: DPAP1 (Plasmodium falciparum, UniProt Q8IIJ9); assay: primary screen, percent inhibition; read by cleavage of a fluorogenic dipeptide substrate; higher = more effect of the substance; parameters: species or system P. falciparum D10 trophozoite lysates; single well
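Further: 30 min substrate incubation versus DMSO and 10 µM JCP410 controls.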

Sequence of DPAP1 (Q8IIJ9 whole entry, looked up): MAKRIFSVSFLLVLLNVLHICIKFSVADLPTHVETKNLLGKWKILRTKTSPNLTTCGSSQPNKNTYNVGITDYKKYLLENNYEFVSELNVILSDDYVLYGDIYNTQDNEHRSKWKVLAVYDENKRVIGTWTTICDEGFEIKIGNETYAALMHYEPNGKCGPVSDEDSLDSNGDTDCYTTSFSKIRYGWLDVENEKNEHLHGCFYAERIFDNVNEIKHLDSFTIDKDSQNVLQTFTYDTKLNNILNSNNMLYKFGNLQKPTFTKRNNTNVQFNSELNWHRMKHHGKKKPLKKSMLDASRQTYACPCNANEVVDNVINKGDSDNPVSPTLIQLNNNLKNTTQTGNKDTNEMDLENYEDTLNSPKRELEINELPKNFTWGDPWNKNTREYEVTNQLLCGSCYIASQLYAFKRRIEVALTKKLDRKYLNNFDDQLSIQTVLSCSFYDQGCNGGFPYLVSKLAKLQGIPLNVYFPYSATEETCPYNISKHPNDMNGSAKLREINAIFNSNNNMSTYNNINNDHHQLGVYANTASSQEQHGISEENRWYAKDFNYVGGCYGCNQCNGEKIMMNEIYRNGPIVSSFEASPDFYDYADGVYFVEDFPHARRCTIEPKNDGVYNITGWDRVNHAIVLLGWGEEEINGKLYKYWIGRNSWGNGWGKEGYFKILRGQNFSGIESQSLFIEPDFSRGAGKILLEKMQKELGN

| Structure (SMILES) | % Inhibition @ 10 uM [%] |
| --- | --- |
| O=C(c1cc2c(s1)-c1ccccc1OC2)N1CCCN(Cc2ccccc2Cl)C1 | -3.08 |
| CCc1nnc(SC(CC)C(=O)NC2CCCC2)c2cc3oc(C)cc3n12 (stereo not shown) | 0.616 |
| CC(C)(C)c1ccc(N2C(=O)CCC2=O)cc1 | 0.147 |
| O=S(=O)(Nc1ccccc1)c1cccc(S(=O)(=O)c2ccc(Cl)c(S(=O)(=O)Nc3ccccc3)c2)c1 | 3.25 |
| O=C(Nc1ccncc1)c1ccc(COc2cc(Cl)ccc2Cl)cc1 | 0.413 |
| COc1ccc(C(=O)Nc2ccc(F)cc2F)cc1Cl | -5.34 |
| CCN(CC)C(=O)Cn1cc(SCC(=O)NCCOC)c2ccccc21 | -4.63 |
| Cc1ccc(CN2CCN(c3ccc(F)cc3)CC2)c(C)c1 | 4.81 |
| Cn1c(C=O)nc2ccccc21 | -0.339 |
| O=C(NCc1ccc2c(c1)OCO2)c1nc(-c2cccc(F)c2)n2c1CCCCC2 | 2.19 |
| COc1cc(C(=O)O)c(-n2cnnn2)cc1OC | -2.28 |
| O=C(O)c1ccc(CNCCN2CCC(Cc3ccccc3)CC2)s1 | -6.98 |
| Cc1ccc(S(=O)(=O)CC(=O)c2ccc(C(C)(C)C)cc2)cc1 | 1.86 |
| COc1ccc(OC)c(NC(=O)C2CCN(S(C)(=O)=O)CC2)c1 | 0.0504 |
| Cc1nn(-c2ccccc2)c(-n2cccc2)c1C(=O)NCc1ccccn1 | 3.4 |
| CCOC(=O)N1CCc2c(sc(NC(C)=O)c2C(=O)Nc2ccc(OC)cc2OC)C1 | -0.116 |
| O=c1[nH]c(=O)n(-c2ccccc2)c2c1C(C(F)(F)F)(C(F)(F)F)NC(c1ccncc1)=N2 | -1.57 |
| CCOc1ccc(CCNC(=O)c2cc(S(=O)(=O)N(C)C)c(Cl)cc2Cl)cc1OCC | 2.7 |
| NC1=C(c2nc3ccccc3[nH]2)C(=O)CN1CC1CCCO1 (stereo not shown) | 0.486 |
| Nc1c2cnnc-2nc(SCC(=O)c2ccc(Cl)cc2)n1-c1ccc(Br)cc1 | 1.42 |
| CC(NC(=O)c1ccccc1)c1ccc(Cl)c(Cl)c1 (stereo not shown) | -7.02 |
| CC1(C)CC(=O)C(C2(O)C(=O)c3ccccc3C2=O)C(=O)C1 | -1.69 |
| Cc1cc(O)c(C2=NCCSC(c3cccs3)C2)c(=O)o1 (stereo not shown) | 4.16 |
| CC(C)Oc1ccc(CNC(=O)CN2C(=O)C(c3ccccc3)Oc3cccnc32)cc1 (stereo not shown) | 0.402 |
| O=C(Cn1nc(-c2ccccc2)ccc1=O)NCc1ccc2c(c1)OCO2 | -2.99 |
| COc1ccc(C2NC(=O)c3ccccc3O2)cc1 (stereo not shown) | -4.61 |

| Structure (SMILES) | % Inhibition @ 10 uM [%] |
| --- | --- |
| CCOC(=O)c1cnc(SCC(=O)Nc2sc3c(c2C(=O)OCC)CCCC3)nc1N | 0.558 |
| Cc1cc(N2CCCC(CO)C2)nc2cc3c(cc12)OCO3 (stereo not shown) | 1.84 |
| CCOC(=O)c1c(C)[nH]c(C)c1S(=O)(=O)NCCCOC | -4.78 |
| Nc1nc(-c2ccccc2)c(CC(=O)O)s1 | 2.31 |
| CCOc1ccc(Cc2nn[nH]n2)cc1 | 1.51 |
| COCCNC(=O)Cc1c(C)nc2c(-c3ccc(F)cc3)c(C)nn2c1C | 0.953 |
| COc1ccc(-c2noc(-c3nnn(-c4ccccc4C)c3N)n2)cc1 | -3.01 |
| CC1=C(C(=O)Nc2ccc(C)cc2)C(c2ccc(Cl)cc2Cl)NC(=O)N1C (stereo not shown) | -9.25 |
| CCCC1=Nc2ncnn2C(c2cc(Br)ccc2OC)/C1=C(/O)OCC (stereo not shown) | 1.53 |
| CCCc1ccc(-c2ccc(F)c(N)c2)nc1 | -3.38 |
| Cc1cccc(CNC(=O)c2ccc(-c3nc(CS(=O)c4ccccc4)c(C)o3)cc2)c1 (stereo not shown) | 1.31 |
| COc1cccc(C(=O)c2c(N)c(-c3nc(-c4cc(OC)ccc4OC)cs3)c3ccccn23)c1 | 1 |
| Cc1cc(C)c([N+](=O)[O-])c(C)c1/C=N/O | 0.00178 |
| O=C(NCc1ccco1)c1cc(-c2ccccc2)c(N2CCOCC2)s1 | -1.03 |
| Cc1cc(C)cc(-n2c(C)cc(C(=O)C(=O)NCc3ccccc3)c2C)c1 | 6.98 |
| COc1ccc(S(=O)(=O)N2CCC(C(=O)Nc3ccc(C(F)(F)F)cc3)CC2)cc1 | -3.97 |
| N=C1S/C(=C\c2ccc(-c3cccc(Cl)c3)o2)C(=O)N1c1nccs1 | 6.02 |
| Cc1ccc2n1CCn1cc(-c3ccc(Br)cc3)cc1-2 | 1.02 |
| CCOC(=O)c1noc2c1CCc1sccc1-2 | 0.231 |
| CCOC(=O)c1cnc2c(Cl)cccc2c1NCc1ccccc1 | 0.611 |
| CC(C)(C)NC(=O)COc1ccc(CNCc2cccs2)cc1 | 2.48 |
| CCOCCCNC(=O)Nc1nnc(N(C)Cc2ccccc2)s1 | 0.623 |
| Fc1cccc(CCNC2CCN(Cc3ccccc3)CC2)c1 | -0.0953 |
| COc1ccc2c(c1)c1c(n2Cc2ccccc2)CCCC1 | -4.35 |
| CC(=O)N(C)c1ccc(NC(=O)[C@@H]2CCCC[C@@H]2C(=O)O)cc1 | 2.32 |
| S=C(Nc1ccc(Cl)cc1)c1sc(N2CCOCC2)nc1N1CCOCC1 | -5.32 |

| Structure (SMILES) | % Inhibition @ 10 uM [%] |
| --- | --- |
| CC(C)N(Cc1ccccc1)C(=O)C1=CCN(S(=O)(=O)c2ccc(F)cc2)CC1 | 0.137 |
| COc1ccc(C(=O)Nc2cc(Cl)ccc2OC)cc1 | -2.6 |
| COc1cc(NC(=N)Nc2nc(O)c3c(n2)CCCC3)cc(OC)c1 | -5.35 |
| Cc1ccccc1CN1CCN(C(=O)C(c2ccccc2)c2ccccc2)CC1 | 0.611 |
| CCN(CC)C(=O)Cn1c(=O)n(CC(=O)NCc2ccc(C)cc2)c(=O)c2sccc21 | -3.77 |
| COc1nc(OC)nc(N(C)CCO)n1 | 2.16 |
| CCC/C(=N\C(C)C)C1=C(O)CC(C)(C)CC1=O | -5.07 |
| CC(C)COC(=O)N[C@@H](CC1CCCCC1)C(=O)NCC#N | -3.49 |
| CCOC(=O)C1CCN(Cc2cccnc2)CC1 | -1.86 |
| Cc1noc(C)c1S(=O)(=O)NCCc1ccc(Cl)cc1 | 2.02 |
| CN1CCN(C(=O)CN2N=C(c3ccccc3)CCC2=O)CC1 | 5.35 |
| Cc1n[nH]c(C)c1/N=C1\S/C(=C2\Sc3ccccc3N2C)C(=O)N1C | 3.13 |
| O=C(Nc1ccccc1F)c1ccc(Br)cc1 | 5.29 |
| CCOc1cc(OCC)cc(C(=O)Nc2ccc(Br)c(C)n2)c1 | -9.87 |
| Cc1ccccc1-c1nc2ccccc2c(=O)n1C1CCS(=O)(=O)C1 (stereo not shown) | 0.291 |
| COc1ccc(-c2noc(-c3ccccc3C(=O)Nc3cccnc3)n2)cc1OC | -0.0108 |
| N#CCc1nc(-c2ccccc2)cs1 | -5.33 |
| CC(=O)c1c(C)n(CC(=O)N2CCOCC2)c2ccccc12 | 0.032 |
| O=C(CN1C(=O)S/C(=C\c2c[nH]c3ccc(Br)cc23)C1=O)N1CCCC1 | -4.54 |
| COc1cc(OC)c(CN2CCN(c3ccccc3)CC2)cc1Br | 1.55 |
| C=CCNCc1cccn1-c1sc2c(c1C#N)CCCC2 | -5.96 |
| COc1cc2nc3c(O)n(Cc4ccc(Cl)cc4)cnc-3c2cc1OC | -3.52 |
| CC1CC(Nc2ccccc2)c2ccccc2N1C(=O)COc1ccccc1Cl (stereo not shown) | 1.35 |
| COc1ccc(/C=c2\sc3nc4cc(OC)c(OC)cc4c(=O)n3c2=O)cc1 | 5.42 |
| COc1ccc(C2NC(S)=NC(C)=C2C(=O)Nc2ccc(Cl)cc2)cc1 (stereo not shown) | 1.27 |
| CC(C)c1ccccc1OCCCCCN1CCOCC1 | 3.86 |

| Structure (SMILES) | % Inhibition @ 10 uM [%] |
| --- | --- |
| CC1CC(=O)C2=C(C1)OC(N)=C(C#N)C2c1ccc(N(C)C)cc1 (stereo not shown) | 3.54 |
| COc1ccc(-c2cc(-c3ccccc3O)[nH]n2)cc1 | 1.57 |
| COc1cccc(CNC(=O)c2nn(C)c3c2COc2ccccc2-3)c1 | -1.72 |
| Cc1ccc(S(=O)(=O)N(CC(=O)Nc2cccnc2)c2ccc(C(C)C)cc2)cc1 | 0.843 |
| O=c1c(Cl)c(NCCCO)cnn1C12CC3CC(CC(C3)C1)C2 | 3.51 |
| COc1ccc(C2C(C#N)=C(N)OC3=C2C(=O)CCC3)cc1COc1cccc(Br)c1 (stereo not shown) | 6.27 |
| COc1cccc(S(=O)(=O)NCC(=O)N2CC(C)OC(C)C2)c1 (stereo not shown) | 3.56 |
| CC1CCCC(NC(=O)CCCn2sc3ccccc3c2=O)C1C (stereo not shown) | -8.56 |
| N#CCNC(=O)CCS(=O)(=O)Cc1ccccc1OC(F)F | -1.5 |
| Cc1ccc(S(=O)(=O)Nc2cccc3nsnc23)cc1 | -2.32 |
| Cc1cccc(OCC(=O)Nc2ccc(S(=O)(=O)N3CCCCC3C)cc2)c1 (stereo not shown) | -1.52 |
| C=CCNC(=O)c1cc(-c2cccnc2)nc2ccccc12 | 7.18 |
| COCc1cc(C)nc(SCC(=O)Nc2c(C)cc(Br)cc2C)c1C#N | -1.38 |
| CCc1cc(C(=O)O)c(NC(=O)c2ccc(C(C)(C)C)cc2)s1 | 2.76 |
| Cc1ccc(C)c(NC(=O)CSc2ncnc3[nH]cnc23)c1 | 0.161 |
| CCc1cc2c(N3CCOCC3)ncnc2s1 | -0.687 |
| COc1ccc(NC(=O)/C(=C\c2ccc3c(c2)OCO3)NC(C)=O)cc1 | 4.3 |
| CNS(=O)(=O)c1ccc2c(c1)C(=O)c1ccccc1C2=O | -1.18 |
| CCCCN(C)c1nc(C)nc2sc(C)cc12 | -2.17 |
| Cc1cc(C)n(-c2nnnn2-c2ccccc2)n1 | -3.07 |
| Cc1c2cnn(CC(=O)NCc3ccc4c(c3)OCO4)c(=O)c2c(C)n1Cc1ccccc1 | 4.4 |
| NC(=O)c1nc(-c2cccc(Br)c2)nc2c1nc(O)n2C1CCCCC1 | -10 |
| CC1CCCCN1C(=O)c1cccc(F)c1F (stereo not shown) | 2.18 |
| CC1CCC(Nc2nc3ccccc3c3nc(-c4cccnc4)nn23)CC1 (stereo not shown) | -0.692 |
| COc1ccc(OCc2cccc(C(=O)N3CCN(c4ccc(OC)cc4)CC3)c2)cc1 | -5.06 |
